# Read counts are not given, so values of variants with three or more changes are uncertain.
# B1: OR4K15 (parent)
# chain: GUUAACGGUCAUAGGCCAUGGAAACUAGGAGCACCAUUUCGCUGCCAGUGAAGAAAUGAACAAAGAAAAUCUGGGCCAGGCAGGCAUCAAAAGAAAUAGUCUUGCGCUCAACCAGAAAGUCUGUAAUCAUUUUAAGGGUA
# Variants of: B1
# Assay: self-cleavage, relative activity (ratio to wild type); higher = more cleavage; in vitro, sequencing; the parent is a self-cleaving ribozyme
row,Variant,self-cleavage
1,G53U A82G A117G,0.98
2,A52G A82U U131C,0.19
3,A23G U49C C85U,1.67
4,C46A C81U A117G,0.51
5,A33G A69G U139C,0.98
6,U43C A111U A126G,0.07
7,A18U A52G U108C,0.02
8,A5G U9C A86G,0.63
9,A64G G104A A135G,0.01
10,A23G U38G A78G C112U U120A,0.01
11,A22G U49A A86G A91G A95G,0.27
12,C10U A33G A95G U127A,0.83
13,A117G U120G A129G A140G,1.42
14,A4G A56G A69G A89G U102C A118G,0.89
15,U3C A56G U127A,0.93
16,A36G U39C A116C,0.18
17,G14A C46A C61U A96G,0.76
18,A23G U39C U102G A125G,0.26
19,U9A A55G A66G,0.86
20,A47G A89G A95G U124C,1.4
21,G29U U49C A60G,1.05
22,A27G A82G U108C,0.01
23,U12C A56G A95G A116U U122C U127C,1.01
24,U43C A52G A60G A62G A94G A129G,0.17

row,Variant,self-cleavage
1,U26C A36U A51G A118G,1.44
2,U43C A64G A68G,1.58
3,A13G A59U A68G,0.64
4,A11G U19A A54G,1.42
5,U12C U57A A78G A89G,0.29
6,A11G A24G A30U A56G A64G A98G A110G,0.01
7,A11C G20U A69G G73A A95G A118G,0.05
8,A27G A33C A110G,0.23
9,A62G U87C A95G U102A U103C A114U,0.01
10,A18G A55G A64G U108A G123A,0
11,U38C A82G A90G U133A,0.32
12,U3C A30G U37C A90G,1.34
13,A52G A66U U133C,0.83
14,A23G C40U A135U,1.78
15,U39C U132G A135G,1.01
16,A23U A30G A47G A111G U130C,0
17,U2C A22C A91G U108C A110G,0.02
18,U9A A22G U38A U43C U97C A111G,0
19,A13G A68G A117G,0.48
20,A13G U87C A126G,0.57
21,A11G A52G A56G A59G A60G A62G A82G,0.38
22,A23G A63G U102C U131C,1.99
23,U19C U49A A63G U132C,1.18
24,U9C A11G C16G A110G,0.14

row,Variant,self-cleavage
1,A22G A54G U87C A117G A126G,1.16
2,U43A A64G U100C A114G,0.94
3,A62G A78U A89G U133C,0.29
4,U43C C76U U102C,0.23
5,U19A U38C A66G U102C,1.79
6,A51G A117G A135G,1.78
7,G29U A59G U100C U102A,2.48
8,A30G U38A A89G,1.42
9,A52G A62G U70C A78U G80A A82G U132C,0.12
10,A23G U131C G136U,1.69
11,U9C U49C A54C,1.75
12,U37C A51G A134G,1.85
13,A13G A69G A78U U87C,0.3
14,U37A A47U A52G,0.92
15,A67G C76U A118U U122A,0.01
16,U43C U124C A129G,0.9
17,U9G A78U A135U,0.51
18,U9C U39C A51G A116G A117G U122C,0.28
19,G14A A23G A52U U72C A89U A114G,1.3
20,U70C G75C A94G A116G,0.03
21,U19C U122C U124C U130C,0.57
22,A5G A11G U19C A51G,0.57
23,U38C A52U A126C U132C,0.57
24,U2A U39C U49C A89G G137A,1.1

row,Variant,self-cleavage
1,A62G A86U U102C C128A U130C,2.23
2,U97C A110U A111G A116G,0.01
3,A11G A68G A69G U120C U127C,0.1
4,U9A A67G A110G U122A,0.07
5,A33G G58U A60G C128U,0.73
6,U9A U120C U122C,0.62
7,U2A U12A A62G A111G,0.11
8,A59G A98G U131C,0.78
9,A5G A78U A96G A125G,0.09
10,U2A A23G A91G A114C,0
11,G1A A23U U57A A67U U132C,1.47
12,A56G A94G U122G U131C,2.37
13,U9G A51G A78G G93C,0.37
14,U43C A64G U70C,1.21
15,A5G A36G A66C A94G,1.02
16,U12A A126G C128U,0.39
17,A62G A78G A110U,0.69
18,U39C U49C A51G A67U A95G A96G A116G,0.46
19,U43C A82U A118G,0.11
20,A51G A52G A54U A110G,0.18
21,U9C A52G U102C,2.24
22,A18G U19A U43A A51G,0.95
23,U2A U3A A24C A116G U130C,0.72
24,A18G U49C A89C,1.34

row,Variant,self-cleavage
1,A5G U38C U122C,0.53
2,A51U G79U U120C,0.05
3,A27G A33G U108C,0.02
4,U12C A59G A62G U124C,0.34
5,U12C A52G A90G,1.35
6,A11G A55G C101A U131C,0.08
7,A22G U97C A116U,0.05
8,U108A A117G A129G,0
9,A59U A62G A63G U108A,0.08
10,A11U U87C A129G,0.28
11,A24G A54G A66U A118G,0.29
12,A5G A118G U122C,0.92
13,A52G G80A U133A A140G,0.05
14,U103C A111G A117G,0
15,A51U A117G U127C,1.73
16,A23G A78G U131G,0.16
17,A23G A56G A96G U103G,0.11
18,U12C A24G G75A,0.26
19,C42A U87C A96G C112U,0.01
20,U9A U38A A114C,0.04
21,A13G A96U A118G,1.11
22,A13C A22G A60G A67G,1.12
23,U72C A90G U100C A110U U131C,0.16
24,U9C G21A A55G A95G A110G U120C U130C,0.14

row,Variant,self-cleavage
1,U3C A24G U70C A98G,0.14
2,G7A A52G A59G A63G A116U,0.33
3,U49C A54G A111G U120C,0
4,U57G A69G U103G,0.06
5,A86G A96G U103C A114G A118G A126G,0.02
6,U12C A13G A64U C77U A111G,0.1
7,A33U U72C U139C,0.44
8,A66G U122C U139C,1.14
9,A66C A78G A89U A95G A118G,0.11
10,A13G A64U A116U,0.5
11,U37C U49C A59G U72A,0.16
12,A13G A96G U108C,0.03
13,A59U A117G G137A,1.18
14,U26C A33G A36G,1.16
15,A36G A47U G115U,0.1
16,A18U U43C U49G G136A,0.5
17,A5G C34U U39A U57C G83A A129G,0.96
18,U9C A22G U43A A78U G123U U130C,0.58
19,U9A A18G U39G A60G A134G,0.7
20,U19A A51G A118U A134U,0.84
21,A11G A63G A69G G99U,0.36
22,U43C A64G U122C,0.39
23,G31A A62U A64G,1.21
24,C6G U9C A54G A86G A98U U122C,0.59

row,Variant,self-cleavage
1,A11G A47G A51C A69G U132C,0.11
2,U39A A62G A92G A111U,0.07
3,A69G U72C A96G,0.25
4,A69G U100C A126G U131C U132C,2.13
5,A22U A33G A68G A86G,0.65
6,A47G A82U U127C,0.13
7,U12C A55U A60U A64G U97C U108C U131A,0.03
8,U9C A30G A36G A116G,0.92
9,A23G A64G U132A,1.34
10,A4G U9C A51U U122C,0.47
11,A30G U102A A134G,0.05
12,A23C A60G U70A,1.18
13,A30G A64G U97C G115A,0.13
14,A24G A62G U100C,0.89
15,U37C G44A A51G A62G G73A A89G,0.28
16,A36U A47G A118U,0.5
17,A5G G7A A59G A68G,1.41
18,A33G A67G U72C U100A,0.07
19,A24U A27G A55G,0.62
20,A33G A55G U72C A135G,0.09
21,U9C A62G A68G U102C A134G,2.07
22,A47U U49A A111G,0.01
23,A67U U70C A82U A89C A110G U127C U130C,0.01

# — the RNAGym collection of RNA variant scans (doi:10.7554/elife.90254)
